PubChem BioAssay AID504333 (National Center for Advancing Translational Sciences (NCATS), 2011)
Screen size: about 360,000 compounds; about 16,000 (4.4%) were called active. Inconclusive means that the source gave no clear call. Such entries were picked first, then a sample of the others. The call rests on the fitted dose curve; in most records, active means well fitted inhibition curve with a large enough effect; inconclusive means small, poorly fitted or top-dose-only effect; inactive means no such curve, though single readings can be large or run the other way. Potencies beside an inconclusive call are fits to weak or partial responses and may not hold up.

Target: Bromodomain adjacent to zinc finger domain protein 2B (Homo sapiens) (UniProt Q9UIF8)
Chain of UniProt Q9UIF8 (Q9UIF8 whole entry, looked up, the tested form may be a part): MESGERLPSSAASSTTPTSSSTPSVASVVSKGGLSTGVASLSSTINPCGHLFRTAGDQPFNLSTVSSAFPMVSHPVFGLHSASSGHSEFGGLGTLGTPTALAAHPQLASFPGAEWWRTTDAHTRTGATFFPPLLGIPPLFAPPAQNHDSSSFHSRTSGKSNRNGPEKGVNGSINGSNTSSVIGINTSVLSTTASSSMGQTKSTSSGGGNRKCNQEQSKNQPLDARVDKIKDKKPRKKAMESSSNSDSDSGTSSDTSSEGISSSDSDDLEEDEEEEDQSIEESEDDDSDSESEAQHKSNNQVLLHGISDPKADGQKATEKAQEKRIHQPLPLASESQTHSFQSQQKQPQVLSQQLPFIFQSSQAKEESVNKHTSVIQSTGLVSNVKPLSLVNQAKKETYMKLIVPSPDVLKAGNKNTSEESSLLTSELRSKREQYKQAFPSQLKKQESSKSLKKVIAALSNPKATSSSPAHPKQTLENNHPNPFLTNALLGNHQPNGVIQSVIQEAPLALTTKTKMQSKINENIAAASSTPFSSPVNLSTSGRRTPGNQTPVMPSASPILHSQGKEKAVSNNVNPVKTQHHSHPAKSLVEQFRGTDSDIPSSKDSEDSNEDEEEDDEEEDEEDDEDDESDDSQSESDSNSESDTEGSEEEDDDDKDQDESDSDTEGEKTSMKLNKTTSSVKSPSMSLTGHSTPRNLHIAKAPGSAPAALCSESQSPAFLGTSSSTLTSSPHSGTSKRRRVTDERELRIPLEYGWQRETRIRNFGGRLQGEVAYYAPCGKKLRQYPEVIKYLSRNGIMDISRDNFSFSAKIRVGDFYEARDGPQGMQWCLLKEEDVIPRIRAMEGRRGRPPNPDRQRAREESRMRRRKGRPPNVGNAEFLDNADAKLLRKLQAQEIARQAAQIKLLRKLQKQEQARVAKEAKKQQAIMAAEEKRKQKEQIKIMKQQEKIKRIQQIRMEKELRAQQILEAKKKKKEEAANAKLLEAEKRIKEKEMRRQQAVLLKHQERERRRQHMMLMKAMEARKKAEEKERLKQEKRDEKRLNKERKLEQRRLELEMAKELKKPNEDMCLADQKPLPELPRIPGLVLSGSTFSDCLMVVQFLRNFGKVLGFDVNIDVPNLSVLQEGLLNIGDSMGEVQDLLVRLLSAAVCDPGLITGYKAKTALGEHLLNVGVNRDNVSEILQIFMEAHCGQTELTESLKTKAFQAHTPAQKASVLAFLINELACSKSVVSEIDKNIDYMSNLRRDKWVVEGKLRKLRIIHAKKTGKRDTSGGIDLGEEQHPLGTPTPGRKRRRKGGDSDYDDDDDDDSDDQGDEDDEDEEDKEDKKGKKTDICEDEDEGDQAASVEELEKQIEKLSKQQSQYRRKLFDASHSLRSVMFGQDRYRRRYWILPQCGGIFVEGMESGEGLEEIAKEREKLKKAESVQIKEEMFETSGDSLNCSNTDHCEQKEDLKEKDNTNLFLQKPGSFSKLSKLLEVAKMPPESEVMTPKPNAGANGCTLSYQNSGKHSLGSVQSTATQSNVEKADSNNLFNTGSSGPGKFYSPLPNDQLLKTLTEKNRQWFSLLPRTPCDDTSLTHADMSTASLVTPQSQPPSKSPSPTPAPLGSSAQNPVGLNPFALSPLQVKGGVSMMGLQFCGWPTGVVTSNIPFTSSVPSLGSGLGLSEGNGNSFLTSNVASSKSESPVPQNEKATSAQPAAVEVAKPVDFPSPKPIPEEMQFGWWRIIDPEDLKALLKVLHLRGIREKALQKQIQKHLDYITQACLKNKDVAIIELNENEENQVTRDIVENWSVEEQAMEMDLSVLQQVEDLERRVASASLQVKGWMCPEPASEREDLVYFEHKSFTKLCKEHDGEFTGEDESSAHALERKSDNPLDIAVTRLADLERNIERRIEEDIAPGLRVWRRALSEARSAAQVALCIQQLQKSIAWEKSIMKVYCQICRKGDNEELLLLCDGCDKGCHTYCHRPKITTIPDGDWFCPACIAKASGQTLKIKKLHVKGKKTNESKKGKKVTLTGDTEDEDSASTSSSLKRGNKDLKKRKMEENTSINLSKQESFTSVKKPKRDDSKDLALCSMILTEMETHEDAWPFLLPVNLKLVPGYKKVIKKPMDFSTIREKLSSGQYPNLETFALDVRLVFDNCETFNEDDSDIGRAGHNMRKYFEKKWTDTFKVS
Experiment: qHTS Assay for Inhibitors of BAZ2B; further: nearly all actives have a fitted effect of over 60% in size
Conditions: AlphaScreen BAZ2B-H3K14Ac peptide displacement; activity change, negative = inhibition: at 114 µM (top of the series) unless noted
In short: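 AlphaScreen luminescence quantifies BAZ2B engagement of H3K14Ac peptide; the protein and biotinylated peptide are both at 50 nM final, buffer PBS pH 7.4 with 0.01% Tween-20, all steps at room temperature.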
On the % scale 0 is the no-effect control and ±100 the full control effect; potency means the concentration at half of the fitted maximal effect; tags describe the fitted curve by direction and shape.

| SMILES | Potency | activity change, negative = inhibition |
| --- | --- | --- |
| COc1ccccc1/C=C/CN1CCCCC1 | active: 79.4 µM |  |
| OC[C@@H](O)[C@H](O)C(/C=N/Nc1ccccc1)=N\Nc1ccccc1 | inconclusive: 79.4 µM [inhibitor, partial curve] |  |
| Cc1ccc(-c2nc(CS(=O)(=O)CC(=O)Nc3ccc(Br)cc3F)c(C)o2)cc1 | inconclusive: 89.1 µM [inhibitor, single point] |  |
| O=C(NCCCN1CCN(c2cccc(Cl)c2)CC1)c1sc2ncccc2c1-n1cccc1 | active: 35.5 µM |  |
| CC(C)NCCOCCOc1ccc(Cl)cc1Br | inconclusive: 89.1 µM [inhibitor, single point] |  |
| Cc1ccc(Nc2c(-c3ccc(Br)o3)nc3ccccn23)cc1 | inconclusive: 79.4 µM [inhibitor, single point] |  |
| CCc1ccc2[nH]c(=O)c(C(c3nnnn3CCOC)N3CCN(c4ccc(F)cc4)CC3)cc2c1 (stereo unspecified) | inconclusive: 50.1 µM [inhibitor, partial curve] |  |
| Cc1ccc(-c2nc(C#N)c(N3CCCCC3)o2)cc1 | inconclusive: 8.91 µM [inhibitor, full curve] |  |
| O=C1NN(c2cccc(Br)c2)C(=O)/C1=C\c1ccc(O)cc1 |  | inactive: -35.8% |
| COc1cccc(CN(C)CC(=O)Nc2ccccc2C(=O)Nc2ccccc2)c1OC | inconclusive: 56.2 µM [inhibitor, partial curve, poor fit] |  |
| CCOC(=O)c1c(CNCc2ccccc2F)c2sc(C)cc2n1C | inconclusive: 44.7 µM [inhibitor, partial curve] |  |
| Cc1ccccc1Nc1nc(-c2cccnc2)cs1 | active: 39.8 µM |  |
| CCCCc1nnc(SCCSc2nnc(CCCC)n2N)n1N | inconclusive: 89.1 µM [inhibitor, single point] |  |
| CO/N=C\Cc1oc(=O)c(NC(=O)c2ccccc2)cc1C(=O)OC |  | inactive: -5.66% |
| CC(=O)c1cccc(Oc2cc(NN3CCCCC3)c([N+](=O)[O-])cc2[N+](=O)[O-])c1 | inconclusive: 7.08 µM [inhibitor, full curve] |  |
| O=C(c1noc2c1CCc1ccccc1-2)N1CCOCC1 |  | inactive: 0.803% |
| C#CCOCCOCCOCCNc1nc(N2CCN(C(=O)[C@H](CCCCN)n3cc([C@@H](N)CC(C)C)nn3)CC2)nc(N2CCN(C(=O)[C@H](Cc3ccc(O)cc3)n3cc([C@@H](N)CC(C)C)nn3)CC2)n1 | active: 56.2 µM |  |
| CC(C)c1nc2ccc(Br)cn2c1NC1CCCC1 | inconclusive: 50.1 µM [inhibitor, partial curve] |  |
| Cc1cc(C)c(NC(=S)N(CCCN2CCN(C)CC2)Cc2cccs2)c(C)c1 | inconclusive: 79.4 µM [inhibitor, single point] |  |
| CN(CC(=O)NC1CC(C)(C)NC(C)(C)C1)S(=O)(=O)c1ccc(Br)cc1 |  | inactive: 0.664% |
| COC(=O)c1ccc(N=Nc2c(C)[nH]n(-c3ccccc3)c2=O)cc1 | inconclusive: 2.51 µM [inhibitor, full curve] |  |
| CCc1ccc(NC(=O)CSc2nccn2-c2ccc(F)cc2)cc1 |  | inactive: 16.1% |
| COc1cc(C(=O)OCC(=O)Nc2c(F)cccc2F)cc(OC)c1C | inconclusive: 50.1 µM [inhibitor, partial curve] |  |

| SMILES | Potency | activity change, negative = inhibition |
| --- | --- | --- |
| COc1cccc(C2Nc3ccccc3C(=O)N2O)c1O (stereo unspecified) | inconclusive: 100 µM [inhibitor, single point] |  |
| COc1ccc(NC(=O)C/C(C)=N/NC(=O)c2ccccn2)c(OC)c1 | inconclusive: 7.08 µM [inhibitor, full curve] |  |
| CCOC(=O)c1c(-n2cccc2)sc2c1CCCC2=O | inconclusive: 79.4 µM [inhibitor, single point] |  |
| COc1cc(NC(C(=O)Nc2cccc(C(C)=O)c2)c2ccccc2)cc(OC)c1OC (stereo unspecified) | inconclusive: 89.1 µM [inhibitor, single point] |  |
| COc1ccc(C(=O)Cc2cc(OC)c(OC)cc2[N+](=O)[O-])c(OC)c1 |  | inactive: 9.95% |
| CCOc1ccc(-c2nnc(SCC(=O)N3CCCC3)o2)cc1 | inconclusive: 3.98 µM [inhibitor, single point] |  |
| CN1c2ccsc2/C(=N/Nc2ccccc2)CS1(=O)=O | inconclusive: 25.1 µM [inhibitor, full curve, poor fit] |  |
| CN1CCN(S(=O)(=O)c2ccc(N(C)Cc3cccc(F)c3)nc2)CC1 |  | inactive: -16% |
| COc1ccccc1-n1c(C)c2c(OC)cccc(=O)c2c1C | inconclusive: 89.1 µM [inhibitor, single point] |  |
| CCOc1ccc(-c2cc3nc(C4CCN(C(=O)OC(C)(C)C)CC4)c(C(=O)Nc4cccc(CC)c4)cn3n2)cc1 |  | inactive: 0.892% |
| COc1cccc(OCc2nc(-c3ccc(Br)o3)no2)c1 | inconclusive: 89.1 µM [inhibitor, single point] |  |
| Cc1ccc(CNc2nnc(C)c3nnn(Cc4ccc(F)cc4)c23)cc1 |  | inactive: -0.003% |
| CCc1ccc(-c2nc(CSCC(=O)NCc3ccco3)c(C)o2)cc1 | inconclusive: 44.7 µM [inhibitor, partial curve] |  |
| Cc1ccc(-c2ccc(/C=N/c3ncn[nH]3)o2)cc1Cl | inconclusive: 89.1 µM [inhibitor, single point] |  |
| Cc1ccc(NC(=O)CN2C(=O)N/C(=C/c3ccccc3OCc3cccc(C(=O)O)c3)C2=O)cc1 | active: 17.8 µM |  |
| CNC(=S)NC12CC3CC(CC(C3)C1)C2 | inconclusive: 89.1 µM [inhibitor, single point] |  |
| CN(Cc1ccco1)c1ncnc2ccc(-c3cccc(Cl)c3)cc12 |  | inactive: -19.4% |
| Cc1ccc(CN2CCN(c3ccccc3)CC2)o1 | active: 50.1 µM |  |
| CC(C)(C)NC(=O)C(c1cccs1)N(C(=O)c1csnn1)c1ccccc1F (stereo unspecified) |  | inactive: -3.55% |
| COc1ccc(OC)c2[nH]c(=O)c(CCNC(=O)C(=O)c3c[nH]c4ccccc34)cc12 | active: 56.2 µM |  |
| O=C(O)CNS(=O)(=O)c1cccc2nsnc12 |  | inactive: -27.2% |
| CCn1c(/C=N/Nc2ccc(C(=O)O)cc2)nc2ccccc21 |  | inactive: 2.43% |
| COc1cc(/C=N/NC(=O)c2ccncc2)ccc1OC(=O)c1cccc(Br)c1 | inconclusive: 70.8 µM [inhibitor, single point] |  |
